Reference: PubChem BioAssay AID488969 (Vanderbilt High Throughput Screening Facility, 2010)
In all, about 110,000 compounds were measured (“z-score”: median about -0.1, highest 2% from about 2 on). The list shows a part of the results. The source made the active and inactive calls.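 How the source made its calls: active means z-score in the third read window above 3 or below -3; inactive means the rest.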

target: Metabotropic glutamate receptor 8 (Rattus norvegicus) (UniProt P70579); assay: rat mGluR8 modulators via GIRK flux, primary screen, cell-based, thallium flux, HTS (AID 488969); details: HEK293 rat mGluR8, GIRK (G protein-gated inwardly rectifying potassium channel) thallium flux, FluoZin2; at 10 µM; stronger effect = higher value; submaximal glutamate (EC20) added with thallium
UniProt P70579, sequence (P70579 whole entry, looked up): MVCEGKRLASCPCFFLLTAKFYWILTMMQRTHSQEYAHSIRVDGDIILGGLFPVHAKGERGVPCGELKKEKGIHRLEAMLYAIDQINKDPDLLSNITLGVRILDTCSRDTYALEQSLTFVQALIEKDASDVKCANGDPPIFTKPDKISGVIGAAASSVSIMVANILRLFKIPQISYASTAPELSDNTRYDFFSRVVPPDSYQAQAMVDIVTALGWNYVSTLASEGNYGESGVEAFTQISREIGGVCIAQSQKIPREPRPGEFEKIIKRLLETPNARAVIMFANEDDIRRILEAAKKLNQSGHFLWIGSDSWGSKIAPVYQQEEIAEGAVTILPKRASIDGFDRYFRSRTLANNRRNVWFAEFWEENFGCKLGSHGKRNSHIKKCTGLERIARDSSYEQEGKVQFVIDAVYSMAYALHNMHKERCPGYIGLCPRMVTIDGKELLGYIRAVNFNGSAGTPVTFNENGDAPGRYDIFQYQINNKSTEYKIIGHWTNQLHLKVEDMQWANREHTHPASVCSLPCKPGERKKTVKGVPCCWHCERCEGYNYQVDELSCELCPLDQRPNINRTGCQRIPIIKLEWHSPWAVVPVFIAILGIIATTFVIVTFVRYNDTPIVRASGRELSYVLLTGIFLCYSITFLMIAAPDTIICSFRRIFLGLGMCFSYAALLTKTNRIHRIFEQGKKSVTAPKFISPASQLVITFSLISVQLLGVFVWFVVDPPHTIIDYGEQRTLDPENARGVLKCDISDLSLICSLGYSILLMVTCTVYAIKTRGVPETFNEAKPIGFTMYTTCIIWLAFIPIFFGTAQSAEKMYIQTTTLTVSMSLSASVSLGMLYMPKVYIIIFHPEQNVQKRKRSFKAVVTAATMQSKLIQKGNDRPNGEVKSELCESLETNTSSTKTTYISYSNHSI

SMILES | z-score
O=c1c2ccccc2oc2nc(C3CCCCC3)n(Cc3ccco3)c(=O)c12 | -1.35
CCCCNC(=O)CCNS(=O)(=O)c1ccc(Br)cc1 | -0.0937
Cc1cc(NC(=O)c2cn(C3CCCCC3)c(=O)c3c2c2ccccc2n3C)no1 | 0.0883
COc1ccccc1OCCOCCOc1ccc(C)cc1[N+](=O)[O-] | 0.687
Cc1cccc(NC(=O)C2C3C=CC(C4CC34)C2C(=O)O)c1 (stereo unspecified) | 0.262
NS(=O)(=O)c1ccc(NC(=S)NCc2ccc(Cl)cc2)cc1 | 0.225
O=C(OCc1cccs1)c1ccccc1NS(=O)(=O)c1ccc2c(c1)OCCO2 | -0.267
COc1ccc(C2/C(=C(/O)c3ccccc3)C(=O)C(=O)N2CCO)cc1 (stereo unspecified) | -0.0153
CCCCP(=O)(CCCC)Cc1ccccc1 | -0.216
Cc1ccc(S(=O)(=O)NC(=O)N2CCC(C)CC2)cc1 | 1.01
O=C(CCSc1ccc(Cl)cc1)N1CCN(c2ncccn2)CC1 | -0.0871
CCOC(=O)c1ccc(N=C2NC(=O)CS2)cc1 | 0.412
O=C(CSCC(=O)NC1CC1)Nc1ccc2ccccc2c1 | 0.16
O=C(OCC(=O)c1cccs1)C1=COCCO1 | 1.34
S=C(c1ccc2c(c1)OCO2)N1CCCC1 | 0.134
COCCNC(=O)c1ccc2c(c1)nc(C)n2-c1cccc(F)c1 | -0.117
Cn1c(=O)n(CCc2ccccc2)c(=O)c2c1nc1n2CCCN1c1ccccc1 | -0.316
CCCCCCCCCCOC(=O)C[N+](C)(C)C/C=C(/C)Cl | -0.157
Cc1cccn2c(/C=N/OCc3cccc(F)c3)c(-c3ccc(Cl)cc3)nc12 | 0.118

SMILES | z-score
Cc1ccc(/C=N\NC(=O)C2CN(S(=O)(=O)c3ccccc3)CCN2S(=O)(=O)c2ccccc2)cc1 (stereo unspecified) | -0.151
CCCN1C(=O)/C(=C/c2ccco2)SC1=Nc1ccc(OC)cc1 | -0.105
COc1ccccc1C1C(C#N)=C(N)Oc2cc(C)n(CCCn3ccnc3)c(=O)c21 (stereo unspecified) | -0.181
C=CCn1c(SCC(=O)Nc2sc(C)c(C)c2C(=O)OCC)nnc1-c1sc(N)nc1C | active: -3.37
O=C(Oc1ccc(-c2cnc3ccccc3n2)cc1)c1cc([N+](=O)[O-])ccc1Cl | -1.5
CC1CCN(C(=O)c2cc3nc(C4CC4)cc(C(F)(F)F)n3n2)CC1 | -0.466
O=C(Nc1ccc(Cl)cc1)OCc1cc(-c2ccccc2Cl)on1 | -0.0883
CCC(=O)Nc1ccc(NC(=O)/C=C/c2ccc(Cl)cc2)cc1 | -0.359
O=C(/C=C/c1cccc(Br)c1)NCC1CCCCC1 | -0.276
CN(C)CCNc1oc(COc2ccc(-c3ccccc3)cc2)nc1C#N | 2.06
CC1CC(=S)Nc2ccccc2N1Cc1ccccc1 (stereo unspecified) | 1.32
Cc1cc(Cl)c(S(=O)(=O)N2CCN(c3ccc(F)cc3)CC2)cc1OCC(N)=O | -0.206
O=C(COc1ccc2c(c1)OCO2)Nc1ccc2c(c1)oc1ccccc12 | 0.219
Cc1cc(Oc2nc3c(C)cccn3c(=O)c2/C=C(\C#N)S(=O)(=O)c2ccccc2)ccc1Cl | -0.183
Cc1ccc(N=Cc2nc(/C=C/c3cccc([N+](=O)[O-])c3)oc2O)cc1 | -0.0691
Cc1cc(C)nc(SCc2nc3ncccn3c2Br)n1 | -0.841
Cc1nn(C(=O)c2ccco2)c(C)c1Sc1ccc(Br)cc1 | 0.0785
C(=N\Nc1nc(-c2ccccc2)cs1)/c1ccco1 | 0.0633
O=C(NCc1cccc(F)c1)c1ccc(N2C(=O)Cn3c(cc4sccc43)C2=O)cc1 | -0.123

SMILES | z-score
COc1ccc(CCNC(=O)c2cc(C(=O)c3cc(Cl)ccc3O)cn(CCc3ccc(OC)cc3)c2=O)cc1 | 0.492
O=C(/C=C/c1ccc2c(c1)OCO2)NCCSCc1cccc(Cl)c1 | -0.166
NC(=O)c1ncc(C(F)(F)F)cc1Oc1ccc(F)cc1 | -0.256
Cc1cccc(OCC(=O)NC(=S)Nc2ccccc2N2CCOCC2)c1 | active: 3.14
CCOC(=O)c1cnc(Nc2nc3ccccc3o2)nc1CSC(=S)N1CCCCC1 | 0.0266
CCOC(=O)N1CCN(/C=C(\C#N)c2nc3ccccc3s2)CC1 | 1.73
CC1CCN(Cc2cnc(Cl)s2)CC1 | 0.0467
COc1ccc(-c2cc(C(F)(F)F)nc(SCC(=O)NCc3cccs3)n2)cc1 | -0.253
COc1cc2c(cc1OC)C(C(=O)O)C(c1cc(Br)c(O)c(OC)c1)N(C)C2=O (stereo unspecified) | -0.372
COc1ccc(S(=O)(=O)Oc2ccc3ccccc3c2)cc1 | -0.0921
CCOc1cccc(OCCCOc2cccc3cccnc23)c1 | 0.0282
O=S(=O)(Nc1ccc(O)c(Sc2nc3ccccc3s2)c1)c1cccc2ccccc12 | -0.254
CCc1nnc(NS(=O)(=O)c2ccc(NS(=O)(=O)c3ccc(NC(C)=O)cc3)cc2)s1 | -0.14
O=C1CN(C(=O)COc2ccc(Br)cc2F)c2ccccc2N1 | -0.567
O=C(/C=C/c1ccccc1Cl)c1cccnc1 | -1.07
COc1cc(C(=O)OCCN2CCOCC2)cc(OC)c1OC | -0.284
Cc1cccc(-c2ccc(C=Nc3c(C)n(C)n(-c4ccccc4)c3=O)o2)c1 | -0.313
CCN(CC)S(=O)(=O)c1cccc(C(=O)NC2CCCCC2)c1 | 0.138
